Each structure is given as a SMILES string. Counter-ions that a name gives are not always drawn. In all, about 2,000 compounds were measured (“fractional viability relative to vehicle”: median about 0.92, lowest 2% from about 0.11 on). The list shows a part of the results.

This assay concerns TYKNU. The assay is described as follows: fractional viability relative to vehicle; TYKNU is a high-grade serous ovarian cancer line; higher = less growth inhibition. To be noted: 72 h, genotype: OPA1 knockout (sgOPA1 #2). An outline of the steps:
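TYKNU control cells or lentiCRISPRv2 knockout derivatives were plated at 500 cells per well in duplicate into drug-stamped 384-well plates holding a ~2100-compound library at 2 or 10 μM. Culture was in RPMI 1640 with 10% FBS at 37 °C in 5% CO2, with 72 h of drug treatment. Viability was measured by Cell Titer Glo luminescence, and the averaged duplicate treatment wells were normalised to duplicate control wells at the same plate position.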

As for `COc1ccc(-c2cnc3c(-c4cccc5ncccc45)cnn3c2)cc1`, the fractional viability runs as follows: (2uM) 1.15; (10uM) 1.2.
The matching figures for `CNS(=O)(=O)Cc1ccc2[nH]cc(CCN(C)C)c2c1` [Sumatriptan Succinate]: 1.06 and 1.19.
As for `O=c1c(O)c(-c2ccc(O)c(O)c2)oc2cc(O)ccc12` [Fisetin], the fractional viability by setting is: (2uM) 1.06; (10uM) 0.956.
Taken in the same sequence, the figures for `COc1cc2ncnc(Oc3cccc(NC(=O)Nc4cc(C(C)(C)C(F)(F)F)on4)c3)c2cc1OC` were 0.807 and 0.778.
For the molecule `O=C(COc1ccc(Cl)cc1)NC1CCC(NC(=O)COc2ccc(Cl)cc2)CC1` (stereo not drawn) [ISRIB (trans-isomer)], the fractional viability (2uM) was 1.09 and the fractional viability (10uM) is 0.976.
Taken in the same sequence, the figures for `CC1=C(C(=O)OC(C)C)C(c2cccc([N+](=O)[O-])c2)C(C(=O)OC2CN(C(c3ccccc3)c3ccccc3)C2)=C(N)N1` (stereo not given) [Azelnidipine] were 0.87 and 0.597.
The matching figures for `Cc1cc(C2CCCCC2)n(O)c(=O)c1` [Ciclopirox ethanolamine]: 0.773 and 0.482.
Taken in the same sequence, the figures for `Cc1cc(C2CCCCC2)n(O)c(=O)c1` [Ciclopirox] were 0.726 and 0.519.
As to `COc1cc(C(=O)NS(=O)(=O)c2ccccc2C)ccc1Cc1cn(C)c2ccc(NC(=O)OC3CCCC3)cc12` [Zafirlukast], the fractional viability runs as follows: (2uM) 1.1; (10uM) 1.1.
Regarding `CN[C@H]1CN(c2ccc3c(=O)c(C(=O)O)cn(-c4nccs4)c3n2)C[C@@H]1OC` [Voreloxin (SNS-595)], the fractional viability is, setting by setting: (2uM) 0.699; (10uM) 0.63.
Taken in the same sequence, the figures for `CCc1cncnc1N1CCN(Cc2nc3ccc(C(F)(F)F)cc3[nH]2)CC1` were 0.848 and 0.869.
As for `O=C(O)c1cc(=O)c2ccccc2o1` [Chromocarb], the fractional viability was determined as 0.872 (2uM) and 0.816 (10uM).
Turning to `NS(=O)(=O)c1cc(C(=O)O)c(NCc2ccco2)cc1Cl` [Furosemide], the fractional viability is, setting by setting: (2uM) 1.16; (10uM) 1.16.
As for `CCOc1cc([C@@H](CS(C)(=O)=O)N2C(=O)c3cccc(NC(C)=O)c3C2=O)ccc1OC`, the fractional viability was found to be 0.859 (2uM) and 0.899 (10uM).
Take `CC(C)C[C@@H]1NC(=O)[C@@H](C(C)C)NC(=O)[C@@H]2CCCN2C(=O)[C@@H](CC(=O)O)NC(=O)[C@@H](Cc2c[nH]c3ccccc23)NC1=O`: the fractional viability stood at 0.722 (2uM) and 0.866 (10uM).
Taken in the same sequence, the figures for `CN(C)C(=O)COC(=O)Cc1ccc(OC(=O)c2ccc(NC(=N)N)cc2)cc1` [Camostat Mesilate] were 1.03 and 0.994.
Taken in the same sequence, the figures for `N=C(N)NC(=O)c1nc(Cl)c(N)nc1N` [Amiloride HCl] were 1.01 and 0.973.
The matching figures for `Nc1ccccc1NC(=O)c1ccc(CNC(=O)OCc2cccnc2)cc1` [Entinostat (MS-275)]: 0.478 and 0.242.
In the case of `CCCCOc1c(C(=O)c2c(F)cc(C)cc2F)c[nH]c2nncc1-2`, the fractional viability (2uM) came out at 1.25 and the fractional viability (10uM) turned out to be 0.403.
The matching figures for `O=[N+]([O-])c1ccc2c(c1)S(=O)(=O)C=C2` [Stattic]: 0.33 and 0.124.
Taken in the same sequence, the figures for `CCCCCCCCC/C(=C\C1=C(C)C(=O)C(OC)=C(OC)C1=O)C(=O)O` were 0.843 and 0.862.
Taken in the same sequence, the figures for `CC[C@H]1OC(=O)[C@H](C)[C@@H](O[C@H]2C[C@@](C)(OC)[C@@H](O)[C@H](C)O2)[C@H](C)[C@@H](O[C@@H]2O[C@H](C)C[C@H](N(C)C)[C@H]2O)[C@](C)(OC)C[C@@H](C)C(=O)[C@H](C)[C@@H](O)[C@]1(C)O` [Clarithromycin] were 1.03 and 1.
Regarding `CN(C)CC[C@H](CSc1ccccc1)Nc1ccc(S(=O)(=O)NC(=O)c2ccc(N3CCN(Cc4ccccc4-c4ccc(Cl)cc4)CC3)cc2)cc1[N+](=O)[O-]`, the fractional viability (2uM) amounted to 0.906 and the fractional viability (10uM) came out at 0.667.
The matching figures for `NC(=O)Cc1cccc(C(=O)c2ccccc2)c1N` [Nepafenac]: 1.05 and 0.987.
Taken in the same sequence, the figures for `C[C@H]1COC2=C1C(=O)C(=O)c1c2ccc2c1CCCC2(C)C` [Cryptotanshinone] were 0.361 and 0.0832.
Taken in the same sequence, the figures for `CC(C)/N=c1\cc2n(-c3ccc(Cl)cc3)c3ccccc3nc-2cc1Nc1ccc(Cl)cc1` [Clofazimine] were 0.969 and 1.11.
Consider `O=C1Cc2cc(CCN3CCN(c4nsc5ccccc45)CC3)c(Cl)cc2N1` [Ziprasidone HCl], for which the fractional viability was 1.77 (2uM) and 1.16 (10uM).
The matching figures for `CC(=O)Nc1ccc(NC(=S)NC(=O)c2ccc(C(C)(C)C)cc2)cc1` [Tenovin-1]: 0.332 and 0.307.
The matching figures for `CCOc1cc(C(=O)N2CCC(N3CCN(C)CC3)CC2)ccc1Nc1ncc2c(n1)N(C1CCCC1)c1ccccc1C(=O)N2C`: 0.651 and 0.154.
With `O=C(NOCCO)c1ccc2cncn2c1Nc1ccc(I)cc1F`, the fractional viability (2uM) was 0.614 and the fractional viability (10uM) was 0.314.
The matching figures for `O=c1cc(-c2ccc(O)c(O)c2)oc2cc(O)cc(O)c12` [Luteolin]: 1.21 and 1.12.
Taken in the same sequence, the figures for `Nc1ncn([C@H]2C[C@H](O)[C@@H](CO)O2)c(=O)n1` [Decitabine] were 1.42 and 1.45.
The matching figures for `O=C(Cc1ccc(-c2ccc(OCCN3CCOCC3)cc2)cn1)NCc1ccccc1`: 0.335 and 0.266.
As for `CN1C2=CC(=O)/C(=N\NC(N)=O)C=C2CC1S(=O)(=O)O` (stereo not given) [Carbazochrome sodium sulfonate (AC-17)], the fractional viability is, setting by setting: (2uM) 1.01; (10uM) 0.965.
`Cc1cc(Nc2ccc(NC(=O)c3ccc(Nc4ccnc5ccccc45)cc3)cc2)nc(N)n1`: the fractional viability is, setting by setting: (2uM) 0.043; (10uM) 0.0318.
Taken in the same sequence, the figures for `C[C@H](NC(=O)Cc1cc(F)cc(F)c1)C(=O)N[C@H](C(=O)OC(C)(C)C)c1ccccc1` were 0.948 and 1.05.
`CNC(CC(=O)O)C(=O)O` [NMDA (N-Methyl-D-aspartic acid)] yielded a fractional viability (2uM) of 0.984 and a fractional viability (10uM) of 0.928.
Taken in the same sequence, the figures for `CC(C)N(CCCNC(=O)Nc1ccc(C(C)(C)C)cc1)C[C@H]1O[C@@H](n2ccc3c(N)ncnc32)[C@H](O)[C@@H]1O` were 0.899 and 0.929.
Taken in the same sequence, the figures for `C[C@]12CC[C@@H]3c4ccc(O)cc4CC[C@H]3[C@@H]1CC[C@@H]2OC(=O)CCC1CCCC1` [Estradiol Cypionate] were 1.04 and 0.533.
The matching figures for `C[C@H](NC(=O)[C@@H](O)c1cc(F)cc(F)c1)C(=O)N[C@@H]1C(=O)N(C)c2ccccc2-c2ccccc21`: 1.2 and 1.02.
Turning to `Brc1ccc([C@H]2CN3CCSC3=N2)cc1` [(-)-p-Bromotetramisole Oxalate], the fractional viability is 0.832 (2uM) and 0.85 (10uM).
Taken in the same sequence, the figures for `CO[C@@H](C(=O)N1Cc2[nH]nc(NC(=O)c3ccc(N4CCN(C)CC4)cc3)c2C1)c1ccccc1` were 0.964 and 0.815.
The matching figures for `CN1CCN(C2=Nc3cc(Cl)ccc3Nc3ccccc32)CC1` [Clozapine]: 0.895 and 1.08.
The matching figures for `Cc1c(Cc2ccc3ccccc3n2)c2cc(F)ccc2n1CC(=O)O`: 1.05 and 0.915.
Turning to `C=CC(=O)N1CCC(Oc2cc3c(Nc4ccc(Cl)c(Cl)c4F)ncnc3cc2OC)CC1` [Poziotinib (HM781-36B)], the fractional viability was found to be 1.1 (2uM) and 0.926 (10uM).
Taken in the same sequence, the figures for `Cc1cc(=O)n(-c2ccccc2)n1C` [Antipyrine] were 0.795 and 0.925.
As for `Clc1ccc(COC(Cn2ccnc2)c2ccc(Cl)cc2Cl)c(Cl)c1` (stereo not given) [Miconazole], the fractional viability by setting is: (2uM) 0.978; (10uM) 0.595.
Taken in the same sequence, the figures for `Clc1ccc(COC(Cn2ccnc2)c2ccc(Cl)cc2Cl)c(Cl)c1` (stereo not given) [Miconazole Nitrate] were 1.18 and 0.686.
Taken in the same sequence, the figures for `CCCN(CCc1cccs1)[C@H]1CCc2c(O)cccc2C1` [Rotigotine] were 0.841 and 0.767.
Taken in the same sequence, the figures for `Cn1ncc(Cl)c1-c1cc(C(=O)N[C@H](CN)Cc2cccc(F)c2)sc1Cl` were 0.794 and 0.561.
`NC12CC3CC(CC(C3)C1)C2` [Amantadine HCl]: the fractional viability was determined as 0.825 (2uM) and 0.922 (10uM).
In the case of `CC(C)(C)C[C@@H]1N[C@@H](C(=O)N[C@H]2CC[C@H](O)CC2)[C@H](c2cccc(Cl)c2F)[C@]12C(=O)Nc1cc(Cl)ccc12`, the fractional viability is, setting by setting: (2uM) 0.477; (10uM) 0.451.
Taken in the same sequence, the figures for `O=c1c2ccccc2oc2ccccc12` [Xanthone] were 1.03 and 0.929.
Consider `CO[C@H]1O[C@@H]2O[C@@]3(C)CC[C@H]4[C@H](C)CC[C@@H]([C@H]1C)[C@@]24OO3` [Artemether], for which the fractional viability worked out at 0.937 (2uM) and 0.971 (10uM).
Taken in the same sequence, the figures for `CC1CCc2c(N3CCC(O)CC3)c(F)cc3c(=O)c(C(=O)O)cn1c23` (stereo not given) [Nadifloxacin] were 1.02 and 0.982.
The matching figures for `COc1cc2ncc(-c3ccccc3)nc2cc1OC` [Tyrphostin AG 1296]: 1.35 and 1.32.
The matching figures for `CCC[C@H](Nc1nc(-c2ccc(NC(=O)NCC)c(OC)c2)ncc1C)c1cccnc1` [CYT997 (Lexibulin)]: 0.378 and 0.361.
`O=C(O)CCC(=O)Nc1ccc(Br)cn1` [Bikinin]: the fractional viability by setting is: (2uM) 0.818; (10uM) 0.759.
On to `COc1ccc(C(=O)Nc2sc3c(c2C(N)=O)CCCC3)cc1OC`, for which the fractional viability is, setting by setting: (2uM) 0.717; (10uM) 0.731.
Taken in the same sequence, the figures for `O=NO` [Sodium Nitrite] were 0.957 and 0.918.
Taken in the same sequence, the figures for `COc1cc(Nc2ncc(F)c(Nc3ccc4c(n3)NC(=O)C(C)(C)O4)n2)cc(OC)c1OC` [R406 (free base)] were 0.939 and 1.08.
Taken in the same sequence, the figures for `COc1cc(Nc2ncc(F)c(Nc3ccc4c(n3)NC(=O)C(C)(C)O4)n2)cc(OC)c1OC` were 0.879 and 0.78.
The molecule `CC(C)(Oc1ccc(Cl)cc1)C(=O)O` [Clofibric Acid] came in with a fractional viability (2uM) of 0.956 and a fractional viability (10uM) of 0.977.
Taken in the same sequence, the figures for `CC(=O)[C@@]1(O)CC[C@H]2[C@@H]3CCC4=CC(=O)CCC4=C3[C@@H](c3ccc(N(C)C)cc3)C[C@@]21C` [Ulipristal] were 0.841 and 1.07.
The matching figures for `Cc1ccc(NC(=O)c2ccc(CN3CC[C@H](N(C)C)C3)c(C(F)(F)F)c2)cc1Nc1nccc(-c2cncnc2)n1` [Bafetinib (INNO-406)]: 1.09 and 0.174.
The matching figures for `CS(=O)(=O)c1cccc(CNc2nc(Nc3ccc4c(c3)CCC(=O)N4)ncc2C(F)(F)F)c1`: 1.07 and 0.829.
With `CC1(C)CCC(CN2CCN(c3ccc(C(=O)NS(=O)(=O)c4ccc(NCC5CCOCC5)c([N+](=O)[O-])c4)c(Oc4cnc5[nH]ccc5c4)c3)CC2)=C(c2ccc(Cl)cc2)C1`, the fractional viability by setting is: (2uM) 1; (10uM) 0.73.
Taken in the same sequence, the figures for `CCCCCCCCCCC[C@@H](C[C@@H]1OC(=O)[C@H]1CCCCCC)OC(=O)[C@H](CC(C)C)NC=O` [Orlistat] were 1.03 and 0.935.
Taken in the same sequence, the figures for `Nc1nc(N)c2nc(-c3cccc(O)c3)cnc2n1` were 1.05 and 0.588.
The matching figures for `CN1CCC(=C2c3ccccc3CC(=O)c3sccc32)CC1` [Ketotifen Fumarate]: 1.03 and 1.06.
